Measurements reported in the supplement of paper PMC8728848.
The list shows a part of the results.

Legend:
Assay in all cases: glycan array binding signal (z-score within array); higher = stronger binding
Conditions in all cases: glycan notation: IUPAC condensed, linker removed
[1] = molecular target: Gal(b1-3)GlcNAc(b1-6)GalNAc
How it was run: (§1)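 Glycan array binding is given as a within-array Z-score, which can be read as non-binding when negative. The arrays, 3228 of them, came from the Consortium for Functional Glycomics database and were retained only where the protein sequence was available. Z-scores were averaged across arrays of the same protein sequence at different concentrations or buffers and across linkers.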

[2] = molecular target: Gal(b1-3)GlcNAc(b1-6)[Gal(b1-3)]GalNAc
How it was run: as §1

Gal(b1-3)GlcNAc6S = molecular target: Gal(b1-3)GlcNAc6S
How it was run: as §1

[3] = molecular target: Gal(b1-3)[Fuc(a1-4)]GlcNAc
How it was run: as §1

[4] = molecular target: Gal(b1-3)[Fuc(a1-4)]GlcNAc(b1-2)Man
How it was run: as §1

[5] = molecular target: Gal(b1-3)[Fuc(a1-4)]GlcNAc(b1-2)Man(a1-3)[Gal(b1-3)[Fuc(a1-4)]GlcNAc(b1-2)Man(a1-6)]Man(b1-4)GlcNAc(b1-4)[Fuc(a1-6)]GlcNAc
How it was run: as §1

[6] = molecular target: Gal(b1-3)[Fuc(a1-4)]GlcNAc(b1-3)Gal(b1-3)[Fuc(a1-4)]GlcNAc
How it was run: as §1

[7] = molecular target: Gal(b1-3)[Fuc(a1-4)]GlcNAc(b1-3)Gal(b1-4)[Fuc(a1-3)]GlcNAc
How it was run: as §1

[8] = molecular target: Gal(b1-3)[Fuc(a1-4)]GlcNAc(b1-6)GalNAc
How it was run: as §1

[9] = molecular target: Gal(b1-3)[GlcNAc(b1-6)]GalNAc
How it was run: as §1

[10] = molecular target: Gal(b1-3)[Neu5Ac(a2-6)]GalNAc
How it was run: as §1

[11] = molecular target: Gal(b1-3)[Neu5Ac(a2-6)]GlcNAc(b1-4)Gal(b1-4)Glc
How it was run: as §1

[12] = molecular target: Gal(b1-3)[Neu5Ac(b2-6)]GalNAc
How it was run: as §1

Gal(b1-4)Gal = molecular target: Gal(b1-4)Gal
How it was run: as §1

[13] = molecular target: Gal(b1-4)GalNAc(a1-3)[Fuc(a1-2)]Gal(b1-4)GlcNAc
How it was run: as §1

[14] = molecular target: Gal(b1-4)GalNAc(b1-3)[Fuc(a1-2)]Gal(b1-4)GlcNAc
How it was run: as §1

Gal(b1-4)Glc = molecular target: Gal(b1-4)Glc
How it was run: as §1

Gal(b1-4)Glc6S = molecular target: Gal(b1-4)Glc6S
How it was run: as §1

Gal(b1-4)GlcNAc = molecular target: Gal(b1-4)GlcNAc
How it was run: as §1

[15] = molecular target: Gal(b1-4)GlcNAc(a1-6)Gal(b1-4)GlcNAc
How it was run: as §1

Gal(b1-4)GlcNAc(b1-2)Man = molecular target: Gal(b1-4)GlcNAc(b1-2)Man
How it was run: as §1

[16] = molecular target: Gal(b1-4)GlcNAc(b1-2)Man(a1-3)Man(b1-4)GlcNAc(b1-4)GlcNAc
How it was run: as §1

[17] = molecular target: Gal(b1-4)GlcNAc(b1-2)Man(a1-3)[Gal(b1-4)GlcNAc(b1-2)Man(a1-6)]Man(b1-4)GlcNAc(b1-4)GlcNAc
How it was run: as §1

[18] = molecular target: Gal(b1-4)GlcNAc(b1-2)Man(a1-3)[Gal(b1-4)GlcNAc(b1-2)Man(a1-6)]Man(b1-4)GlcNAc(b1-4)[Fuc(a1-6)]GlcNAc
How it was run: as §1

[19] = molecular target: Gal(b1-4)GlcNAc(b1-2)Man(a1-3)[Gal(b1-4)GlcNAc(b1-2)Man(a1-6)][Gal(b1-4)GlcNAc(b1-4)]Man(b1-4)GlcNAc(b1-4)[Fuc(a1-6)]GlcNAc
How it was run: as §1

[20] = molecular target: Gal(b1-4)GlcNAc(b1-2)Man(a1-3)[Gal(b1-4)GlcNAc(b1-2)Man(a1-6)][GlcNAc(b1-4)]Man(b1-4)GlcNAc(b1-4)[Fuc(a1-6)]GlcNAc
How it was run: as §1

[21] = molecular target: Gal(b1-4)GlcNAc(b1-2)Man(a1-3)[GlcNAc(b1-2)Man(a1-6)]Man(b1-4)GlcNAc(b1-4)GlcNAc
How it was run: as §1

[22] = molecular target: Gal(b1-4)GlcNAc(b1-2)Man(a1-3)[GlcNAc(b1-4)][Gal(b1-4)GlcNAc(b1-2)Man(a1-6)]Man(b1-4)GlcNAc(b1-4)GlcNAc
How it was run: as §1

[23] = molecular target: Gal(b1-4)GlcNAc(b1-2)Man(a1-3)[Man(a1-6)]Man(b1-4)GlcNAc(b1-4)GlcNAc
How it was run: as §1

[24] = molecular target: Gal(b1-4)GlcNAc(b1-2)Man(a1-6)Man(b1-4)GlcNAc(b1-4)GlcNAc
How it was run: as §1

[25] = molecular target: Gal(b1-4)GlcNAc(b1-2)Man(a1-6)[GlcNAc(b1-2)Man(a1-3)]Man(b1-4)GlcNAc(b1-4)GlcNAc
How it was run: as §1

[26] = molecular target: Gal(b1-4)GlcNAc(b1-2)Man(a1-6)[Man(a1-3)]Man(b1-4)GlcNAc(b1-4)GlcNAc
How it was run: as §1

[27] = molecular target: Gal(b1-4)GlcNAc(b1-2)[Gal(b1-4)GlcNAc(b1-4)]Man(a1-3)[Gal(b1-4)GlcNAc(b1-2)Man(a1-6)]Man(b1-4)GlcNAc(b1-4)GlcNAc
How it was run: as §1

[28] = molecular target: Gal(b1-4)GlcNAc(b1-2)[Gal(b1-4)GlcNAc(b1-4)]Man(a1-3)[Gal(b1-4)GlcNAc(b1-2)[Gal(b1-4)GlcNAc(b1-6)]Man(a1-6)]Man(b1-4)GlcNAc(b1-4)GlcNAc
How it was run: as §1

[29] = molecular target: Gal(b1-4)GlcNAc(b1-2)[Gal(b1-4)GlcNAc(b1-4)]Man(a1-3)[GlcNAc(b1-4)][Gal(b1-4)GlcNAc(b1-2)Man(a1-6)]Man(b1-4)GlcNAc(b1-4)GlcNAc
How it was run: as §1

[30] = molecular target: Gal(b1-4)GlcNAc(b1-2)[Gal(b1-4)GlcNAc(b1-4)]Man(a1-3)[GlcNAc(b1-4)][Gal(b1-4)GlcNAc(b1-2)[Gal(b1-4)GlcNAc(b1-6)]Man(a1-6)]Man(b1-4)GlcNAc(b1-4)GlcNAc
How it was run: as §1

[31] = molecular target: Gal(b1-4)GlcNAc(b1-2)[Gal(b1-4)GlcNAc(b1-6)]Man(a1-6)[Gal(b1-4)GlcNAc(b1-2)Man(a1-3)]Man(b1-4)GlcNAc(b1-4)GlcNAc
How it was run: as §1

[32] = molecular target: Gal(b1-4)GlcNAc(b1-2)[Gal(b1-4)GlcNAc(b1-6)]Man(a1-6)[Gal(b1-4)GlcNAc(b1-2)Man(a1-3)]Man(b1-4)GlcNAc(b1-4)[Fuc(a1-6)]GlcNAc
How it was run: as §1

[33] = molecular target: Gal(b1-4)GlcNAc(b1-2)[Gal(b1-4)GlcNAc(b1-6)]Man(a1-6)[GlcNAc(b1-4)][Gal(b1-4)GlcNAc(b1-2)Man(a1-3)]Man(b1-4)GlcNAc(b1-4)GlcNAc
How it was run: as §1

[34] = molecular target: Gal(b1-4)GlcNAc(b1-2)[Gal(b1-4)GlcNAc(b1-6)]Man(a1-6)[GlcNAc(b1-4)][Gal(b1-4)GlcNAc(b1-2)[Gal(b1-4)GlcNAc(b1-4)]Man(a1-3)]Man(b1-4)GlcNAc(b1-4)[Fuc(a1-6)]GlcNAc
How it was run: as §1

[35] = molecular target: Gal(b1-4)GlcNAc(b1-3)Gal(b1-3)GalNAc
How it was run: as §1

[36] = molecular target: Gal(b1-4)GlcNAc(b1-3)Gal(b1-3)GlcNAc
How it was run: as §1

[37] = molecular target: Gal(b1-4)GlcNAc(b1-3)Gal(b1-4)Glc
How it was run: as §1

[38] = molecular target: Gal(b1-4)GlcNAc(b1-3)Gal(b1-4)GlcNAc
How it was run: as §1

[39] = molecular target: Gal(b1-4)GlcNAc(b1-3)Gal(b1-4)GlcNAc(b1-2)Man(a1-3)[Gal(b1-4)GlcNAc(b1-3)Gal(b1-4)GlcNAc(b1-2)Man(a1-6)]Man(b1-4)GlcNAc(b1-4)GlcNAc
How it was run: as §1

B1: CFEM-PPm (Pichia pastoris), F2QPV1 (protein)
chain: AVATPPACLLACAAEVVKESSDCDALNNIQCICENEGSAIHACLESTCPDGLSSTALQSFEDVCE
glycan array binding signal (z-score) [1]: -0.239
glycan array binding signal (z-score) [2]: 1.12
glycan array binding signal (z-score) (Gal(b1-3)GlcNAc6S): 0.044
glycan array binding signal (z-score) [3]: -0.12
glycan array binding signal (z-score) [4]: 0.224
glycan array binding signal (z-score) [5]: -0.167
glycan array binding signal (z-score) [6]: -0.034
glycan array binding signal (z-score) [7]: -0.17
glycan array binding signal (z-score) [8]: 0.172
glycan array binding signal (z-score) [9]: 1.5
glycan array binding signal (z-score) [10]: 7.18
glycan array binding signal (z-score) [11]: -0.3
glycan array binding signal (z-score) [12]: 0.453
glycan array binding signal (z-score) (Gal(b1-4)Gal): -0.433
glycan array binding signal (z-score) [13]: -0.175
glycan array binding signal (z-score) [14]: -0.141
glycan array binding signal (z-score) (Gal(b1-4)Glc): -0.356
glycan array binding signal (z-score) (Gal(b1-4)Glc6S): 0.117
glycan array binding signal (z-score) (Gal(b1-4)GlcNAc): -0.105
glycan array binding signal (z-score) [15]: 0.757
glycan array binding signal (z-score) (Gal(b1-4)GlcNAc(b1-2)Man): -0.158
glycan array binding signal (z-score) [16]: -0.373
glycan array binding signal (z-score) [17]: -0.368
glycan array binding signal (z-score) [18]: -0.288
glycan array binding signal (z-score) [19]: -0.285
glycan array binding signal (z-score) [20]: -0.329
glycan array binding signal (z-score) [21]: -0.391
glycan array binding signal (z-score) [22]: -0.509
glycan array binding signal (z-score) [23]: 0.03
glycan array binding signal (z-score) [24]: -0.272
glycan array binding signal (z-score) [25]: -0.21
glycan array binding signal (z-score) [26]: -0.432
glycan array binding signal (z-score) [27]: 0.196
glycan array binding signal (z-score) [28]: -0.194
glycan array binding signal (z-score) [29]: -0.449
glycan array binding signal (z-score) [30]: -0.315
glycan array binding signal (z-score) [31]: -0.21
glycan array binding signal (z-score) [32]: -0.078
glycan array binding signal (z-score) [33]: -0.387
glycan array binding signal (z-score) [34]: -0.174
glycan array binding signal (z-score) [35]: -0.305
glycan array binding signal (z-score) [36]: -0.298
glycan array binding signal (z-score) [37]: -0.204
glycan array binding signal (z-score) [38]: -0.037
glycan array binding signal (z-score) [39]: 1.53
